# Test results reported in PubChem BioAssay AID504832 (National Center for Advancing Translational Sciences (NCATS), 2011).
# Among all 310,000 compounds or so, about 18,000 (5.8%) were called active. The shares of active, inactive and inconclusive entries below differ from those in the screen. Calls come from the whole dose curve; as a rule, active = well fitted inhibition curve with a large enough effect; inconclusive = small, poorly fitted or top-dose-only effect, or another doubt; inactive = no such curve, though single readings can be large or run the other way. No potency is given beside an inconclusive call; the fits are too rough.
# Assay: Primary qHTS for delayed death inhibitors of the malarial parasite plastid, 48 hour incubation
# Settings: P. falciparum luciferase growth in erythrocytes; series mostly up to 28.7 µM
# Summary of the method: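 Erythrocytes infected with P. falciparum carrying an integrated firefly luciferase reporter (2% hematocrit, 0.1% parasitemia final) were exposed to compounds in RPMI 1640 with 0.5% Albumax at 37 C, 5% CO2. Growth inhibition was scored as reduced luminescence.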
# % is set by controls: 0 for no effect and ±100 for the full control effect; potency is the fitted concentration of half-maximal effect; tags give direction and shape of the fitted curve.
Structure (SMILES),Potency,"activity change, negative = inhibition"
COc1cc(CN2CCCC(CO)(Cc3ccccc3C)C2)cc2c1OCO2 (stereo not given),"inconclusive [inhibitor, partial curve, poor fit]",–
Nc1ccc(Br)cc1C(NCC(=O)O)c1ccccc1 (stereo not given),"inconclusive [inhibitor, partial curve, poor fit]",–
Nn1c(=O)[nH]c2c([nH]c3ccccc32)c1=O,inactive,–
CN(C)CCCN(C(=O)COc1ccc(Cl)cc1)c1nc2cc3c(cc2s1)OCO3,inactive,–
Cc1ccc(NC(=O)C(c2ccccc2)N2CCN(C(=O)c3ccco3)CC2)cc1Cl (stereo not given),active: 10.4 µM,–
COc1ccc(Nc2nc(-c3ccccc3O)nc3ccccc23)cc1,"inconclusive [inhibitor, single point]",–
COc1ccc(-n2c(C)cc(C(=O)COC(=O)c3cc(OC)c(OC)cc3NC(=O)c3cccs3)c2C)cc1,active: 4.15 µM,–
Cc1c(C)c2ccc(OC(C)C(=O)NCCN3CCOCC3)c(C)c2oc1=O (stereo not given),"inconclusive [inhibitor, single point]",–
CCN(CC)S(=O)(=O)c1ccc(NC(=O)C2CCCN(C(=O)c3ccc(Cl)cc3)C2)cc1 (stereo not given),"inconclusive [inhibitor, single point]",–
CC(C)(C)CC(C)(C)NC(=S)NC1CCN(Cc2ccccc2)CC1,"inconclusive [inhibitor, single point]",–
COc1ccc(OC)c(/C=N\NC(=O)CSc2nnc(CCCc3ccc(OC)c(C)c3)o2)c1,"inconclusive [inhibitor, single point]",–
CC(C)CC(CO)N1CCN(C(=O)c2ccc(C(C)(C)C)cc2)CCC1=O (stereo not given),"inconclusive [inhibitor, partial curve, poor fit]",–
COC(=O)CCC(=O)N1CCc2cc(S(=O)(=O)N3CCc4ccccc43)ccc21,"inconclusive [inhibitor, partial curve, poor fit]",–
COc1ccc(C(C[N+](=O)[O-])c2c(C)[nH]c3ccccc23)cc1OC (stereo not given),active: 2.08 µM,–
CSCCC(NC(=O)c1ccccc1Br)C(=O)N1CCCCCCC1 (stereo not given),"inconclusive [inhibitor, partial curve, poor fit]",–
O=C(C1CCN(S(=O)(=O)c2cc(Cl)ccc2Cl)CC1)N1CCOCC1,"inconclusive [inhibitor, partial curve, poor fit]",–
CCOC(=O)C1CCCCN1S(=O)(=O)c1cc2c(cc1C)NC(=O)CO2 (stereo not given),inactive,–
Cc1cc(C)c2nc(SCC(=O)NCC3CCCO3)c(C#N)cc2c1 (stereo not given),inactive,–
Cc1ccc(OCCNC(=O)CN2C(=O)NC3(CCCC3)C2=O)cc1,"inconclusive [inhibitor, single point]",–
O=C(O)CSc1ccc2ccccc2n1,inactive,–
Oc1cccc(/C=N/N(Cc2ccccc2)c2ccccc2)c1,active: 6.57 µM,–
CC(=O)Oc1ccc2c(=O)c(Oc3ccccc3)coc2c1OC(C)=O,inactive,–
CC(Oc1ccc(Br)cc1)C(=O)Nc1nc(-c2ccccn2)cs1 (stereo not given),active: 7.38 µM,–
Cc1ccc(S(=O)(=O)NCc2ccc(C(=O)NCCCN3CCC(Cc4ccccc4)CC3)cc2)cc1,"inconclusive [inhibitor, partial curve, poor fit]",–

Structure (SMILES),Potency,"activity change, negative = inhibition"
Brc1ccc2c(c1)C(c1cccnc1)=NNC(c1cccs1)=N2,"inconclusive [inhibitor, single point]",–
COc1ccc(OC)c(NC(=O)CCC(=O)Oc2ccc(C)cc2)c1,"inconclusive [inhibitor, single point]",–
CCc1noc(C)c1C(=O)Nc1ccc(C)c(S(=O)(=O)N2CCCCCC2)c1,active: 10.4 µM,–
CCCCn1c(N)c(N(CCC(C)C)C(=O)c2ccc([N+](=O)[O-])s2)c(=O)[nH]c1=O,active: 9.28 µM,–
Cc1ncc(C[n+]2ccc(C)c(C)c2)c(N)n1,"inconclusive [inhibitor, single point]",–
CN(C)c1ccc(C(=O)N/N=C/c2cc(Br)cc(Br)c2O)cc1,"inconclusive [inhibitor, single point]",–
CN(CC(=O)Nc1ccccc1Cl)C(=O)CN1C(=O)NC(c2ccccc2)(c2ccccc2)C1=O,"inconclusive [inhibitor, single point]",–
COCCOC(=O)c1c(NC(=O)COC(=O)c2ccc(C)o2)sc(C(N)=O)c1C,"inconclusive [inhibitor, single point]",–
CC(=O)C1=C(C)NC(SCC(=O)c2ccccc2)=C(C#N)C1c1ccco1 (stereo not given),"inconclusive [inhibitor, single point]",–
CC(C)OCCCn1c(=N)c(S(=O)(=O)c2ccccc2)cc2c(=O)n3ccccc3nc21,"inconclusive [inhibitor, single point]",–
CCOC(=O)N1CCN(C(=O)Cn2nc(-c3ccc(Cl)cc3)ccc2=O)CC1,inactive,–
Cc1ccccc1SCCNC(=O)c1ccccc1Br,inactive,–
CN(CC(O)Cn1c2ccccc2c2ccccc21)S(C)(=O)=O (stereo not given),"inconclusive [inhibitor, single point]",–
O=C(COC(=O)CCC1CCCC1)Nc1ccc(Cl)cc1F,inactive,–
COc1ccc(CCNC(=O)c2cc(-c3ccccc3)c(N3CCOCC3)s2)c(OC)c1OC,"inconclusive [inhibitor, single point]",–
CCC(CC)NC(=O)CSc1ccc(S(=O)(=O)N2CCOCC2)cn1,inactive,–
Cc1ccc(C)c(-c2csc(-c3cccnc3)n2)c1,"inconclusive [inhibitor, single point]",–
Fc1ccc(C2CCCN2Cc2nc(CC3CC3)no2)cc1 (stereo not given),"inconclusive [inhibitor, partial curve, poor fit]",–
Cc1cccc2cc(C#N)c(SCC(=O)N3CCC(C)CC3)nc12,"inconclusive [inhibitor, single point]",–
O=C(NCCCN1CCOCC1)c1cc2ccccc2cc1O,"inconclusive [inhibitor, single point]",–
Cc1ccccc1-c1nc(CS(=O)CC(=O)NCCCN(C)c2ccccc2)c(C)o1 (stereo not given),inactive,–
Cc1ccc(C(=O)Nc2ccc(C(=O)N/N=C/c3ccc(C)o3)cc2)cc1,"inconclusive [inhibitor, single point]",–
Cc1cc(C)c2nc(NC(=O)c3cccc(S(=O)(=O)N4CCc5ccccc54)c3)sc2c1,inactive,–
O=C(CSc1nnc(-c2ccncc2)o1)Nc1ccccc1C(F)(F)F,"inconclusive [inhibitor, partial curve, poor fit]",–

Structure (SMILES),Potency,"activity change, negative = inhibition"
COc1ccc(CCNC(=O)C2CC(c3ccccc3[N+](=O)[O-])=NO2)cc1 (stereo not given),inactive,–
CCOc1ccc2[nH]c(C(=O)N/N=C/c3ccc(OC)cc3)cc2c1,inactive,–
COc1cc(/C=N/OCC(=O)NC2CCCCC2C)ccc1OCc1ccc(Cl)cc1 (stereo not given),inactive,–
Cc1ccc(-c2csc(N3CCN(c4cc5c(cc4Cl)nc(-c4ccncc4)n5CCN4CCCCC4)CC3)n2)cc1,"inconclusive [inhibitor, full curve]",–
CC(C)(CNC(=O)C1CCN(S(=O)(=O)c2cc([N+](=O)[O-])ccc2Cl)CC1)N1CCOCC1,"inconclusive [inhibitor, partial curve, poor fit]",–
Cc1ccc2c(CN3CCN(Cc4ccc5c(c4)OCO5)CC3)cc(=O)oc2c1C,inactive,–
CCC1(Cc2ccccc2)NC(=O)c2ccccc2O1 (stereo not given),"inconclusive [inhibitor, single point]",–
O=C(CN1C(=O)COc2ccc(Cl)cc21)Nc1ccccn1,inactive,–
O=C(c1ccccc1F)N1CCN(c2ccc([N+](=O)[O-])cc2-n2cccc2)CC1,"inconclusive [inhibitor, single point]",–
COc1ccc(-c2cc(C(=O)Nc3ccc(S(=O)(=O)Nc4ncccn4)cc3)c3ccccc3n2)cc1,"inconclusive [inhibitor, partial curve, poor fit]",–
CCN(CC)S(=O)(=O)c1ccc(N2CC(C(=O)NC3(C)CCS(=O)(=O)C3)CC2=O)cc1 (stereo not given),"inconclusive [inhibitor, single point]",–
CCOc1ccc(S(=O)(=O)Nc2ccc3c(c2)c2c(n3S(=O)(=O)c3ccc(OCC)cc3)CCCC2=O)cc1,"inconclusive [inhibitor, partial curve]",–
CCCOc1ccc(Cn2c(=O)oc3ccc(C)cc32)cc1,inactive,–
CC(C)(CC(=O)O)CC(=O)NNc1ncccc1C#N,active: 4.15 µM,–
CCCOc1ccc(S(=O)(=O)N2CCOCC2)cc1[N+](=O)[O-],inactive,–
Cn1c(SCC#N)nnc1-c1ccc2c(c1)OCO2,inactive,–
CCOC(=O)C1CCN(C(c2cc3ccc(C)c(C)c3[nH]c2=O)c2nnnn2C2CCCCC2)CC1 (stereo not given),"inconclusive [inhibitor, single point]",–
CC(=O)c1c(N2CCN(CCO)CC2)nc(=S)n(-c2ccccc2)c1C,–,inactive: -5.49% [at 5.75 µM]
CCOC(=O)Cn1nnnc1CN(Cc1cccs1)Cc1cc2cc(C)ccc2[nH]c1=O,inactive,–
CCCCNC(=S)N1CCN(C(c2ccccc2)c2ccccc2)CC1,active: 10.4 µM,–
COc1ccc(S(=O)(=O)N2CCOCC2)cc1NC(=O)c1sccc1C,"inconclusive [inhibitor, partial curve, poor fit]",–
COc1ccccc1NC(=O)CCN1C(=O)C2CC=CCC2C1=O (stereo not given),inactive,–
